Inconclusive results, whose numbers are uncertain, are shown with a selection of clear calls. No potency is given beside an inconclusive call; the fits are too rough. Calls of active or inactive are those of the source. Calls come from the whole dose curve; as a rule, active = well fitted inhibition curve with a large enough effect; inconclusive = small, poorly fitted or top-dose-only effect; inactive = no such curve, though single readings can be large or run the other way.
What was measured:
[1] = target: Rap guanine nucleotide exchange factor 3 (Homo sapiens) (UniProt O95398); assay: Confirmatory qHTS for antagonist of cAMP-regulated guanine nucleotide exchange factor 3 (EPAC1) (AID 1645880); conditions: EPAC1 Rap1B-BODIPY-GDP exchange, fluorescence; activity, negative = inhibition: at 115 µM (top of the series); note: nearly all actives have a fitted effect of over 55% in size;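 for activity, negative = inhibition: plate controls were DMSO only for no effect and full effect of the ATA control for full effect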
UniProt O95398, sequence (O95398 whole entry, looked up): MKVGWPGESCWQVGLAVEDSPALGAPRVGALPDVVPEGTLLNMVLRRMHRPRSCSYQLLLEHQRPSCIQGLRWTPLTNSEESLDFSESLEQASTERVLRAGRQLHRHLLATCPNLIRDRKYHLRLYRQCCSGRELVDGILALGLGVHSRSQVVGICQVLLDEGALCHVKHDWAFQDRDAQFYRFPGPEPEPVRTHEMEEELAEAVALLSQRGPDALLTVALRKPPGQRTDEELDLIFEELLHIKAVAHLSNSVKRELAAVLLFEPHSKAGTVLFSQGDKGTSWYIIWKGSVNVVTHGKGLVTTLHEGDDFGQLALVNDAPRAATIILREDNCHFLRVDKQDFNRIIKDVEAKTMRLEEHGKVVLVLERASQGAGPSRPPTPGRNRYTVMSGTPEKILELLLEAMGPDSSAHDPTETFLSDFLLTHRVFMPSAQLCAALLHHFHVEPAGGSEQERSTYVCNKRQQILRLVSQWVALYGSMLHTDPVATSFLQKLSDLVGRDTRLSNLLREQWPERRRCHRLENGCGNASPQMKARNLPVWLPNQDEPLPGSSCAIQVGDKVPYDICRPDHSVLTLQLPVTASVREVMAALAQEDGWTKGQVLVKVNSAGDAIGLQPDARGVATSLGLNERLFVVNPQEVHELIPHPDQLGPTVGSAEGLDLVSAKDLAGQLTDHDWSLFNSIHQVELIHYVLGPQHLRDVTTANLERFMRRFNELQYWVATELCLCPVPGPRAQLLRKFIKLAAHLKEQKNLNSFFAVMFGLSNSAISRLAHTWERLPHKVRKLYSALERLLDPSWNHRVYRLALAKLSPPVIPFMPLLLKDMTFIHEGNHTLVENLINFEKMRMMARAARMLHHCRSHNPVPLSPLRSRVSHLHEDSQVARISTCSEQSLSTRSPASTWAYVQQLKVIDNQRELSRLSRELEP
Procedure, shortened: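 Nucleotide exchange uses 100 nM EPAC1, 250 nM RAP1B-BODIPY-GDP and 50 uM GDP, with compounds in a concentration-titration series. After 5 min at room temperature, fluorescence (480 nm ex/540 nm em) is read every 5 min for 30 min. Data are normalized to control ATA and DMSO.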

[2] = target: Rap guanine nucleotide exchange factor 4 (Homo sapiens) (UniProt Q8WZA2); assay: Confirmatory qHTS for antagonist of cAMP-regulated guanine nucleotide exchange factor 4 (EPAC2) (AID 1645885); conditions: activity change, negative = inhibition: at 12.7 µM (top of the series) unless noted; note: nearly all actives have a fitted effect of over 25% in size; for activity change, negative = inhibition: % is set by controls: 0 for no effect and ±100 for the full control effect
UniProt Q8WZA2, sequence (Q8WZA2 whole entry, looked up): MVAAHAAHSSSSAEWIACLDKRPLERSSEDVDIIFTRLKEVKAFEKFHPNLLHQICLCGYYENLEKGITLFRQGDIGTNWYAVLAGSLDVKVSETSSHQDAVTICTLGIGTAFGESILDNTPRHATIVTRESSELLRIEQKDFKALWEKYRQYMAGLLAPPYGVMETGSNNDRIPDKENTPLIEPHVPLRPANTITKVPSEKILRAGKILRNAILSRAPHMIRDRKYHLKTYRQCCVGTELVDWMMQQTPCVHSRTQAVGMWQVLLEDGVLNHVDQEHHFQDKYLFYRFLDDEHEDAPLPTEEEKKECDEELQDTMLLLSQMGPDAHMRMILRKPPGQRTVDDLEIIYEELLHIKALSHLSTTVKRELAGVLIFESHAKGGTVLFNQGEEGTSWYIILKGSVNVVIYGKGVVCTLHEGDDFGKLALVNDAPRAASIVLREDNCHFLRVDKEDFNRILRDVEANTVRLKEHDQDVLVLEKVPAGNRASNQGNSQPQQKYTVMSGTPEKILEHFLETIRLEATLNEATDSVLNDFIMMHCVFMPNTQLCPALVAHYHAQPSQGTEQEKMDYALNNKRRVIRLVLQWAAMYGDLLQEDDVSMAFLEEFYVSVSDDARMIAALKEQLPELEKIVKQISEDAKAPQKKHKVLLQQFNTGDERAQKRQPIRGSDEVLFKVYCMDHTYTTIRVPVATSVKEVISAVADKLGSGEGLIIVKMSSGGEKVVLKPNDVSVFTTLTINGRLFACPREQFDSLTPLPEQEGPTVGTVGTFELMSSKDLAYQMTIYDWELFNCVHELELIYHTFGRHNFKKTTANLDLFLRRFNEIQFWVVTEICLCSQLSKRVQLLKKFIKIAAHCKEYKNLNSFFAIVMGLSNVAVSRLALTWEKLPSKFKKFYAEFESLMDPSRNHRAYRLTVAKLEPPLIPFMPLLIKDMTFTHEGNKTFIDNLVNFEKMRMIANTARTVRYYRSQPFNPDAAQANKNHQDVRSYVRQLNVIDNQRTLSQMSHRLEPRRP
Potency is the fitted concentration of half-maximal effect; tags give direction and shape of the fitted curve.

SMILES | Potency [1] | Potency [2] | activity, negative = inhibition [1]
CCCc1cc(=O)oc2c3c(cc(OCC(=O)NCc4ccccn4)c12)OC(C)(C)CC3 | inactive | inactive | –
O=C(O)c1cc(S(=O)(=O)Nc2cc(Cl)ccc2Oc2ccccc2)ccc1O | active: 26.9 µM | inactive | –
Cc1ccccc1S(=O)(=O)N1C(c2ccc(Cl)c(Cl)c2)CC=C(C(=O)O)C1c1cccc(Br)c1 (stereo not drawn) | active: 75.7 µM | inactive | –
O=C(CSc1nnc(SCc2ccc(Cl)cc2)s1)N/N=C/c1ccc(C(=O)O)cc1 | inconclusive [inhibitor, partial curve, poor fit] | inconclusive [inhibitor, full curve] | –
O=C(O)/C(CC(=O)c1ccc(Cl)cc1)=N/Nc1ccc([N+](=O)[O-])cc1[N+](=O)[O-] | active: 75.7 µM | inconclusive [inhibitor, partial curve] | –
N#CCOC(=O)[C@H](Cc1c[nH]c2ccccc12)NS(=O)(=O)c1ccc(Cl)cc1 | active: 37.9 µM | active: 53.6 µM | –
Cc1ccc(NS(=O)(=O)c2cccc(C(=O)OCC(=O)NCc3ccco3)c2)cc1 | inconclusive [inhibitor, partial curve] | inactive | –
CC[N+](C)(C)c1ccc(/C=C/c2ccnc3ccccc23)cc1 | inconclusive [inhibitor, partial curve] | inconclusive [inhibitor, partial curve] | –
O=C1[C@H](Cc2ccccc2)NCC=CC[C@@H](c2ccc(Cl)cc2)N1Cc1ccc(Cl)cc1 | inconclusive [inhibitor, partial curve] | inconclusive [inhibitor, full curve] | –
CC(C)CC1C(=O)N(Cc2cn(Cc3ccco3)nn2)CCS(=O)(=O)N1Cc1ccc(-c2ccccc2)cc1 (stereo not drawn) | inconclusive [inhibitor, partial curve, poor fit] | active: 19 µM | –
CC(C)CCn1c(Oc2ccc(Cl)cc2)nc2c1c(=O)n(C)c(=O)n2C | inactive | active: 16.9 µM | –
CCCCCc1c2c(cc(O)c1C(=O)O)OC(=O)c1cc(C(=O)CCCC)c(OC)cc1O2 | active: 42.6 µM | inconclusive [inhibitor, partial curve, poor fit] | –
CN(CC(=O)Nc1ccc(F)cc1)C(=O)COC(=O)C1CCN(c2ccc(C(F)(F)F)cn2)CC1 | – | inactive | inconclusive: -30.6% [inhibitor]
Cc1noc(C)c1COc1ccccc1C(=O)N(C)Cc1ccc(C(C)(C)C)cc1 | inconclusive [inhibitor, partial curve] | inconclusive [inhibitor, partial curve, poor fit] | –

— PubChem BioAssay (NCATS)
